Measurements as given in PubChem BioAssay AID886 (National Center for Advancing Translational Sciences (NCATS), 2007).
Screen size: about 73,000 compounds; about 2,500 (3.4%) were called active. This list was built around the results that the source calls inconclusive (neither active nor inactive); the mix of calls is not that of the screen. The call rests on the fitted dose curve; in most records, active means well fitted inhibition curve with a large enough effect; inconclusive means small, poorly fitted or top-dose-only effect; inactive means no such curve, though single readings can be large or run the other way. Potencies beside an inconclusive call are fits to weak or partial responses and may not hold up.

These compounds were tested against 3-hydroxyacyl-CoA dehydrogenase type-2 (Homo sapiens) (UniProt Q99714) (assay: qHTS Assay for Inhibitors of HADH2 (Hydroxyacyl-Coenzyme A Dehydrogenase, Type II)). Details: recombinant HADH2, NADH fluorescence, beta-hydroxybutyryl-CoA; activity change, negative = inhibition: at 57.1 µM (top of the series).
Summary of the method: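 Activity measured as NADH fluorescence gain (360/450 nm), taken as the change between first and last reads of a 4-min kinetic run. Conditions: pH 9.0 Tris buffer, 20 nM E. coli-expressed His-tagged enzyme, 1 mM NAD+, 90 uM beta-hydroxybutyryl-CoA; 15-min compound preincubation.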
Further: nearly all actives have a fitted effect of over 60% in size.
On the % scale 0 is the no-effect control and ±100 the full control effect; potency means the concentration at half of the fitted maximal effect; tags describe the fitted curve by direction and shape.

UniProt Q99714, sequence (Q99714 whole entry, looked up): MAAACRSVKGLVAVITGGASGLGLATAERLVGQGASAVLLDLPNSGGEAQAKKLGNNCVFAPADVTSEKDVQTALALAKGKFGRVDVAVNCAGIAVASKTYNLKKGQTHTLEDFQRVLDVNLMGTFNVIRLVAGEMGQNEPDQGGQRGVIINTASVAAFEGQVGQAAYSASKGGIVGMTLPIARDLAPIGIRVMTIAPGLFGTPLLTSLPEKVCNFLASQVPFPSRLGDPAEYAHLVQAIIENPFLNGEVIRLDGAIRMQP
UniProt Q99714, sequence (Q99714 whole entry, looked up): as above

| SMILES | Potency | activity change, negative = inhibition |
| --- | --- | --- |
| CCCOc1ccc(-c2nc(C#N)c(N3CCN(C)CC3)o2)cc1 | inconclusive: 39.8 µM [inhibitor, single point] | – |
| O=C(c1cccc(F)c1)N1CCC[C@@]2(CCN(Cc3ccccc3)C2)C1 | inactive | – |
| CCCCCCCC/C=C\CCCCCCCC(=O)NCCc1ccc(O)c(O)c1 | inconclusive: 20 µM [inhibitor, single point] | – |
| COc1ccc(S(=O)(=O)N(C)CC(=O)NCc2cccnc2)cc1C | inconclusive: 31.6 µM [inhibitor, single point] | – |
| CN(C)c1ccc(-c2nc(NCc3cccnc3)c3ccccc3n2)cc1 | inconclusive: 25.1 µM [inhibitor, single point] | – |
| O=C(CCCCCN1C(=O)c2ccccc2C1=O)Nc1nccs1 | inconclusive: 12.6 µM [inhibitor, partial curve] | – |
| CC(C)CN(CC(C)C)C(=O)CS(=O)(=O)Cc1ccccc1 | inactive | – |
| CCCOc1ccc2c(C)c(CC(=O)OC)c(=O)oc2c1 | active: 25.1 µM | – |
| CCOC(=O)c1cnc(SCC(=O)c2ccc3c(c2)OCCO3)nc1N | inconclusive: 39.8 µM [inhibitor, single point] | – |
| CN(Cc1ccco1)c1cc(-c2ccc3c(c2)OCO3)ncn1 | inconclusive: 20 µM [inhibitor, single point] | – |
| COc1ccc(-c2nc3ccccc3s2)cc1O | inconclusive: 25.1 µM [inhibitor, partial curve] | – |
| CCNc1ncc2nc(-c3ccc(F)cc3)c(=O)n(Cc3ccc(F)cc3)c2n1 | inactive | – |
| Nc1nc(-c2cccnc2)nn1C(=O)Cc1ccccc1 | inconclusive: 20 µM [inhibitor, single point] | – |
| Cn1c(C(C#N)C2=C(Cl)C(=O)N(c3ccccc3)C2=O)nc2ccccc21 (stereo not drawn) | inconclusive: 15.8 µM [inhibitor, partial curve] | – |
| COc1ccc2[nH]c(=S)[nH]c2c1 | inconclusive: 15.8 µM [inhibitor, partial curve] | – |
| COc1ccc2[nH]cc(CCNc3ccnc(-c4ccc5c(c4)OCO5)n3)c2c1 | inconclusive: 39.8 µM [inhibitor, single point] | – |
| CN(C)c1ccc(-n2cc3c(=O)n(C)c(=O)n(C)c3c2)cc1 | inactive | – |
| COc1ccccc1-c1cc(=O)c2cc(O)ccc2o1 | inactive | – |
| COc1ccc(C2=NO[C@@H]3C(=O)N(c4ccc(C)cc4C)C(=O)[C@H]23)cc1OC | inconclusive: 12.6 µM [inhibitor, partial curve] | – |
| Cc1ccc(-c2nc(C#N)c(NCCN3CCCCC3)o2)cc1 | active: 31.6 µM | – |
| CC1CCCCN1CCNC(=O)c1cc2c(=O)n(C)c3ccccc3c2n1C (stereo not drawn) | inconclusive: 5.01 µM [inhibitor, full curve] | – |
| COc1ccc(C(=S)N2CCCC2)cc1C | – | inactive: -7.32% [at 11.4 µM] |
| O=C(Nc1ccccc1)N1CC[C@@]2(CCCN(C(=O)c3cnccn3)C2)C1 | inactive | – |
| Fc1ccc2c(Cl)c(-c3nnc(-c4cccs4)o3)sc2c1 | inconclusive: 31.6 µM [inhibitor, single point] | – |

| SMILES | Potency | activity change, negative = inhibition |
| --- | --- | --- |
| COC(=O)c1ccc(CSc2nc(C(F)(F)F)c3c(c2C#N)CCC3)o1 | inconclusive: 31.6 µM [inhibitor, single point] | – |
| O=C(c1cc(-c2ccc(O)cc2)on1)N1CCc2ccccc2C1 | inconclusive: 20 µM [inhibitor, partial curve] | – |
| CCOC(=O)N1CCC(NC(=O)c2cc3c(=O)n(C)c4ccccc4c3n2C)CC1 | inconclusive: 39.8 µM [inhibitor, single point] | – |
| Cc1[nH]nc2c1C(c1ccc(Cl)cc1)C(C#N)=C(N)O2 (stereo not drawn) | inconclusive: 31.6 µM [inhibitor, single point] | – |
| C[C@]12CC[C@@H]3c4ccc(O)cc4CC[C@H]3[C@@H]1CCC2=O | inconclusive: 6.31 µM [inhibitor, single point] | – |
| COc1ccc(-c2ncc3ccccn23)cc1 | inconclusive: 20 µM [inhibitor, single point] | – |
| CCOc1ccc2nc(SCC(=O)NCc3ccco3)sc2c1 | inconclusive: 2 µM [inhibitor, partial curve] | – |
| CCOc1ccc2nc(NS(C)(=O)=O)sc2c1 | inconclusive: 6.31 µM [inhibitor, full curve] | – |
| CCOC(=O)CCc1nc2ccccc2[nH]c1=O | inactive | – |
| CNc1cccccc1=S | inconclusive: 1.26 µM [inhibitor, full curve] | – |
| CN1CCN(C(=O)c2c(O)c3cccc4c3n(c2=O)CCC4)CC1 | inactive | – |
| c1coc(C2Nc3cccc4cccc(c34)N2)c1 | active: 7.94 µM | – |
| NC(=O)CSc1oc(-c2cccs2)nc1S(=O)(=O)c1ccccc1 | inconclusive: 10 µM [inhibitor, partial curve] | – |
| NC(=O)/N=N/C(N)=O | active: 0.0251 µM | – |
| CC(=O)Nc1nonc1-c1nc2ccccc2n1Cc1nnc(C)o1 | inconclusive: 31.6 µM [inhibitor, single point] | – |
| CCOC(=O)C1CCCN(C(=O)Cn2sc3nc(C)cc(C)c3c2=O)C1 (stereo not drawn) | active: 0.251 µM | – |
| O=C(CSCCO)Nc1nccs1 | inconclusive: 39.8 µM [inhibitor, single point] | – |
| c1ccc2c(c1)nc(NCC1CCCO1)c1nnnn12 (stereo not drawn) | inconclusive: 20 µM [inhibitor, single point] | – |
| O=C(CSc1nc2ccccc2c(=O)[nH]1)N1CCCCC1 | inconclusive: 39.8 µM [inhibitor, single point] | – |
| CCCn1c(NC(=O)c2ccc(C)cc2)nc2ccccc21 | active: 15.8 µM | – |
| O=C(CCSc1nc(-c2ccc3c(c2)OCO3)cc(C(F)(F)F)n1)NCc1ccco1 | inconclusive: 31.6 µM [inhibitor, single point] | – |
| Cc1ccc(CCNC(=O)CC2Oc3ccc(C)cc3NC2=O)cc1 (stereo not drawn) | inactive | – |
| COc1cc(-c2c(C#N)c(N)nc(SCc3ccncc3)c2C#N)cc(OC)c1OC | inconclusive: 39.8 µM [inhibitor, single point] | – |
| O=C(COc1ccc(Cl)cc1Cl)Nc1ccccn1 | inactive | – |
